31 molecules from publication PMC9911399, “Two distinct binding modes provide the RNA-binding protein RbFox with extraordinary sequence specificity” can be followed below.

Residue numbers refer to the chain shown, from its start. Some of the results follow.

The chains are these.
T1: RBFOX1 RRM RbFoxmut (Fox-RRM*) (Homo sapiens, UniProt Q9NWB1 109-208, R118D;E147R;N151S;E152T)
T1 sequence: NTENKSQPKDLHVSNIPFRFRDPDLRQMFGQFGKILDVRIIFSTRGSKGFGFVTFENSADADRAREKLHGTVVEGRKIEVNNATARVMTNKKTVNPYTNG

B1: UAAUCAA (DNA:RNA)
RNA: GGGAGACCGGAAUUCAGAUUGUCCUAAUCAAUUAAAUCCCGUCGUAGCCACCA
DNA 1: CAATCTGAATTCCGGTCTCCC
DNA 2: TGGTGGCTACGACGGGATT
B2: GUACAAA (DNA:RNA)
RNA: B1 RNA with U25G, A26U, U28C, C29A
DNA 1: CAATCTGAATTCCGGTCTCCC
DNA 2: TGGTGGCTACGACGGGATT
B3: UCGGAAU (DNA:RNA)
RNA: B1 RNA with A26C, A27G, U28G, C29A, A31U
DNA 1: CAATCTGAATTCCGGTCTCCC
DNA 2: TGGTGGCTACGACGGGATT
B4: UGAUCGC (DNA:RNA)
RNA: B1 RNA with A26G, A30G, A31C
DNA 1: CAATCTGAATTCCGGTCTCCC
DNA 2: TGGTGGCTACGACGGGATT
B5: GGCCGAC (DNA:RNA)
RNA: B1 RNA with U25G, A26G, A27C, U28C, C29G, A31C
DNA 1: CAATCTGAATTCCGGTCTCCC
DNA 2: TGGTGGCTACGACGGGATT
B6: UCUCGGU (DNA:RNA)
RNA: B1 RNA with A26C, A27U, U28C, C29G, A30G, A31U
DNA 1: CAATCTGAATTCCGGTCTCCC
DNA 2: TGGTGGCTACGACGGGATT
B7: CGUCUGA (DNA:RNA)
RNA: B1 RNA with U25C, A26G, A27U, U28C, C29U, A30G
DNA 1: CAATCTGAATTCCGGTCTCCC
DNA 2: TGGTGGCTACGACGGGATT
B8: UACCCGA (DNA:RNA)
RNA: B1 RNA with A27C, U28C, A30G
DNA 1: CAATCTGAATTCCGGTCTCCC
DNA 2: TGGTGGCTACGACGGGATT
B9: GGUUGGG (DNA:RNA)
RNA: B1 RNA with U25G, A26G, A27U, C29G, A30G, A31G
DNA 1: CAATCTGAATTCCGGTCTCCC
DNA 2: TGGTGGCTACGACGGGATT
B10: UGCAGCC (DNA:RNA)
RNA: B1 RNA with A26G, A27C, U28A, C29G, A30C, A31C
DNA 1: CAATCTGAATTCCGGTCTCCC
DNA 2: TGGTGGCTACGACGGGATT
B11: UGGCCUA (DNA:RNA)
RNA: B1 RNA with A26G, A27G, U28C, A30U
DNA 1: CAATCTGAATTCCGGTCTCCC
DNA 2: TGGTGGCTACGACGGGATT
B12: GAGCCUU (DNA:RNA)
RNA: B1 RNA with U25G, A27G, U28C, A30U, A31U
DNA 1: CAATCTGAATTCCGGTCTCCC
DNA 2: TGGTGGCTACGACGGGATT
B13: UAACUUG (DNA:RNA)
RNA: B1 RNA with U28C, C29U, A30U, A31G
DNA 1: CAATCTGAATTCCGGTCTCCC
DNA 2: TGGTGGCTACGACGGGATT
B14: UAUGCUG (DNA:RNA)
RNA: B1 RNA with A27U, U28G, A30U, A31G
DNA 1: CAATCTGAATTCCGGTCTCCC
DNA 2: TGGTGGCTACGACGGGATT
B15: CCGCGGA (DNA:RNA)
RNA: B1 RNA with U25C, A26C, A27G, U28C, C29G, A30G
DNA 1: CAATCTGAATTCCGGTCTCCC
DNA 2: TGGTGGCTACGACGGGATT
B16: AACCACC (DNA:RNA)
RNA: B1 RNA with U25A, A27C, U28C, C29A, A30C, A31C
DNA 1: CAATCTGAATTCCGGTCTCCC
DNA 2: TGGTGGCTACGACGGGATT
B17: CCUAUGC (DNA:RNA)
RNA: GGGAGACCGGAAUUCAGAUUGUCCCCUAUGCUUAAAUCCCGUCGUAGCCACCA
DNA 1: CAATCTGAATTCCGGTCTCCC
DNA 2: TGGTGGCTACGACGGGATT
B18: CUAUCUU (DNA:RNA)
RNA: B1 RNA with U25C, A26U, A30U, A31U
DNA 1: CAATCTGAATTCCGGTCTCCC
DNA 2: TGGTGGCTACGACGGGATT
B19: UAAGGCA (DNA:RNA)
RNA: B1 RNA with U28G, C29G, A30C
DNA 1: CAATCTGAATTCCGGTCTCCC
DNA 2: TGGTGGCTACGACGGGATT
B20: UACAUAC (DNA:RNA)
RNA: B17 RNA with C25U, C26A, U27C, G30A
DNA 1: CAATCTGAATTCCGGTCTCCC
DNA 2: TGGTGGCTACGACGGGATT
B21: GCCGCAA (DNA:RNA)
RNA: B1 RNA with U25G, A26C, A27C, U28G
DNA 1: CAATCTGAATTCCGGTCTCCC
DNA 2: TGGTGGCTACGACGGGATT
B22: AAGGAGG (DNA:RNA)
RNA: B17 RNA with C25A, C26A, U27G, A28G, U29A, C31G
DNA 1: CAATCTGAATTCCGGTCTCCC
DNA 2: TGGTGGCTACGACGGGATT
B23: CUAUAGC (DNA:RNA)
RNA: B17 RNA with C26U, U27A, A28U, U29A
DNA 1: CAATCTGAATTCCGGTCTCCC
DNA 2: TGGTGGCTACGACGGGATT
B24: AUAUACG (DNA:RNA)
RNA: B1 RNA with U25A, A26U, C29A, A30C, A31G
DNA 1: CAATCTGAATTCCGGTCTCCC
DNA 2: TGGTGGCTACGACGGGATT
B25: UUGCGGA (DNA:RNA)
RNA: B1 RNA with A26U, A27G, U28C, C29G, A30G
DNA 1: CAATCTGAATTCCGGTCTCCC
DNA 2: TGGTGGCTACGACGGGATT
B26: CUACGCU (DNA:RNA)
RNA: B17 RNA with C26U, U27A, A28C, U29G, G30C, C31U
DNA 1: CAATCTGAATTCCGGTCTCCC
DNA 2: TGGTGGCTACGACGGGATT
B27: CAUGCCA (DNA:RNA)
RNA: B1 RNA with U25C, A27U, U28G, A30C
DNA 1: CAATCTGAATTCCGGTCTCCC
DNA 2: TGGTGGCTACGACGGGATT
B28: CGUCAGA (DNA:RNA)
RNA: B17 RNA with C26G, A28C, U29A, C31A
DNA 1: CAATCTGAATTCCGGTCTCCC
DNA 2: TGGTGGCTACGACGGGATT
B29: AAUUGUU (DNA:RNA)
RNA: B1 RNA with U25A, A27U, C29G, A30U, A31U
DNA 1: CAATCTGAATTCCGGTCTCCC
DNA 2: TGGTGGCTACGACGGGATT
B30: AUAUGGA (DNA:RNA)
RNA: B1 RNA with U25A, A26U, C29G, A30G
DNA 1: CAATCTGAATTCCGGTCTCCC
DNA 2: TGGTGGCTACGACGGGATT
B31: GCACACC (DNA:RNA)
RNA: B17 RNA with C25G, U27A, A28C, U29A, G30C
DNA 1: CAATCTGAATTCCGGTCTCCC
DNA 2: TGGTGGCTACGACGGGATT

This test concerns the target T1, RBFOX1 RRM RbFoxmut (Fox-RRM*). In words: EMSA; HiTS-Eq, 1 nM pool, 10 min; buffer printed only for the single-RNA assays: 10 mM Tris pH 7.5, 150 mM NaCl, 3.4 mM EDTA, 0.001% NP-40, 30 C. The following applies: tags: His6 N-terminal (pET28a); label: 5' 32P. In a few lines: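 These values rest on relative association constants, computed from read-count changes of each RNA species versus the control reaction and normalised to the cognate motif. Reads came from free RNA recovered by 8% native PAGE after purified RbFox RRM (wild type or mutant) at increasing concentrations was equilibrated for 10 min in 50 µL with 1 nM of a 5′-radiolabelled pool with 7 randomized nucleotides and DNA-annealed flanks.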
For orientation: Mobility shift assays separate free from complexed probe on a gel.
On to B1, for which the binding signal is 0.0593 KA relative to UGCAUGU. In the case of B2, the binding signal is 0.0655 KA relative to UGCAUGU.

For B3, the binding signal is 0.118 KA relative to UGCAUGU.

As to B4, the binding signal was 0.0955 KA relative to UGCAUGU. On to B5, for which the binding signal is 0.0759 KA relative to UGCAUGU. To B6 belongs 0.0842 KA relative to UGCAUGU; to B7, 0.109 KA relative to UGCAUGU; to B8, 0.066 KA relative to UGCAUGU.

As for B9, the binding signal is 0.0621 KA relative to UGCAUGU. Turning to B10, the binding signal was 0.123 KA relative to UGCAUGU.

B11: the binding signal is 0.107 KA relative to UGCAUGU. To B12 belongs 0.0628 KA relative to UGCAUGU; to B13, 0.0601 KA relative to UGCAUGU.

For the molecule B14, the binding signal was 0.101 KA relative to UGCAUGU. Then B15, with 0.0985 KA relative to UGCAUGU. Then B16, with 0.0674 KA relative to UGCAUGU; and B17, with 0.131 KA relative to UGCAUGU; and B18, with 0.0729 KA relative to UGCAUGU. Then B19, with 0.0856 KA relative to UGCAUGU. Turning to B20, the binding signal was 0.0661 KA relative to UGCAUGU. Then B21, with 0.0714 KA relative to UGCAUGU. Regarding B22, the binding signal was 0.0963 KA relative to UGCAUGU. On to B23, for which the binding signal is 0.0868 KA relative to UGCAUGU. Then B24, with 0.159 KA relative to UGCAUGU; and B25, with 0.0904 KA relative to UGCAUGU. For the molecule B26, the binding signal was 0.105 KA relative to UGCAUGU. Then B27, with 0.121 KA relative to UGCAUGU; and B28, with 0.0862 KA relative to UGCAUGU. For B29, the binding signal is 0.135 KA relative to UGCAUGU.

In the case of B30, the binding signal is 0.0552 KA relative to UGCAUGU. Take B31: the binding signal was 0.0578 KA relative to UGCAUGU.
